The source gives no read counts; variants with many changes may rest on few reads.

We go through 20 variants from the RNAGym collection of RNA variant scans (doi:10.7554/elife.90254).

The chains are these.
B1: OR4K15 (parent)
chain: GUUAACGGUCAUAGGCCAUGGAAACUAGGAGCACCAUUUCGCUGCCAGUGAAGAAAUGAACAAAGAAAAUCUGGGCCAGGCAGGCAUCAAAAGAAAUAGUCUUGCGCUCAACCAGAAAGUCUGUAAUCAUUUUAAGGGUA

The variants in the data set derive from B1. As to the kind of experiment: self-cleavage, relative activity (ratio to wild type); higher = more cleavage; in vitro, sequencing; the parent is a self-cleaving ribozyme.
On to GUUAACGGUCAUAGGCCAUGGAAACUAGGAGCACCAUUUCGCCGCCAGUGAAGAAAUGAGCAAAGAAAAUCUGGGCCAGUCAGGCAUCAAAAGAAAUAGUCUUGCGCUCGACCAGAAAGUCUGUAAUCAUUUUAAGGGUA [U43C A60G G80U A110G], for which the self-cleavage was 0.02. Take GUUAACGGUCAUAGGCCAUGGAAACUAGGAGCACCAUUUCGCCGCCAGUGAGGAAGUGAACAAAGAAAAUCUGGGCCAGGCAGGCAUCAAAAGAGAUAGUCUUGCGCUCAACCAGAAAGUCUGUAAUCAUUUUAAGGGUA [U43C A52G A56G A95G]: the self-cleavage is 1.98.

As to GUUAACGGUCAUAGGCCAUGGAAACUAGGAGCACCAUUUCGCCGCCAGUGAAGAAAUGAACAAGGAAAAUCUGGGCCAGGCAGGCAUCAAAAGAAAUAGUCUUGCGCUCACCCAGAAAGUCUGUAAUCAUUUUAAGGGUA [U43C A64G A111C], the self-cleavage was 0.02.

As for GUUAACGGUCAUAGGCCAUGGAAACUAGGAGCACCAUUUCGCCGCCAGUGGAGAAAUGAACAAAGAAAAUCUGGGCCAGGCAGGCAUCAAAAGAAAUAGUCUUGCGCUCAACCAGAAAGUCUGUAGUCAUUUUAAGGGUA [U43C A51G A126G], the self-cleavage amounted to 1.14. The figure for GUUAACGGUCAUAGGCCAUGGAAACUAGGAGCACCAUUUCGCCGCCAGUGAAGAAAUGAACGAAGAAAAUCUGGGCCAGGCAGGCAUCAAAAGAAAUAGUCCUGCGCUCAACCAGAAAGUCUGUAAUCAUUUCAAGGGUA [U43C A62G U102C U133C] is 2.06. Regarding GUUAACGGUCAUAGGCCAUGGAAACUAGGAGCACCAUUUCGCCGCCAGUGAGGAAAUGAACAAAGAAAAUCUGGGCCAGGCAGGCAUCAGAAGAAAUAGUCUUGCGCUCAACCAGAAAGUCUGUAAUCAUUUUAAGGGUA [U43C A52G A90G], the self-cleavage was found to be 1.34.

GUUAACGGUCAUAGGCCAUGGAAACUAGGAGCACCAUUUCGCCGCCAGUGAAGAUAUGAACAAAGAAAAUCUGGGCCAGGCAGGCAUCAAAAGGAAUAGUCUUGCGCUCAACCAGAAAGUCUGUAACCAUUUUAAGGGUA [U43C A55U A94G U127C]: the self-cleavage was determined as 0.6. In the case of GUUAACGGUCAUAGGCCAUGGAAACUAGGAGCACCAUUUCGCCGCCAGUGAGGAAAUGAACAAGGAAAAUCUGGGCCAGGCAGGCAUCAGAGGAAAUAGUCUUGCGCCCAACCAGAGAGUCUGUAAUCAUUUUAAGGGUA [U43C A52G A64G A90G A92G U108C A117G], the self-cleavage worked out at 0.02. In the case of GUUAACGGUCAUAGGCCAUGGAAACUAGGAGCACCAUUUCGCCGCCAGUGUAGAAAUGAACAAAGAAGAUCUGGGCCAGGCAGGCAUCAAAAGAAAUAGUCUUGCGCUCGACCAGAAAGUCUGUAAUCAUUUUAAGGGUA [U43C A51U A68G A110G], the self-cleavage came to 0.13. On to GUUAACGGUCAUAGGCCAUGGAAACUAGGAGCACCAUUUCGCCGCCAGUGAAGGAAUGAACCAAGAAAAUCUGGGCCAGGCAGGCAUCAAAAGAAAUAGUCAUGCGCUCAACCAGAAAGUCUGUAAUCAUUUUAAGGGUA [U43C A54G A62C U102A], for which the self-cleavage turned out to be 0.65. On to GUUAACGGUCAUAGGCCAUGGAAACUAGGAGCACCAUUUCGCCGCCAGUGAAGAAAUGAGCAAAGAAAAUCUGGGCCAGGCAGGCAUCAAAAGAAACAGUCUUGCGCUCAACCAGAAAGUCUGUAAUCAUUUUAAGGGUA [U43C A60G U97C], for which the self-cleavage was 1.43. For GUUAACGGUCAUAGGCCAUGGAAACUAGGAGCACCAUUUCGCCGCCAGUGGAGAAAUGAACAAAGAAAAUCUGGGCCAGGCAGGCAUCAAAAGAAAUAGUCUUGCGCUCAACCAGAAAGCCUGUAAUCAUUUUAAGGGUA [U43C A51G U120C], the self-cleavage came out at 0.77. GUUAACGGUCAUAGGCCAUGGAAACUAGGAGCACCAUUUCGCCGCCAGUGAGGAAAUGAACAAAGAAAAUCUGGGCCAGGCAGGCAUCAAAAGAAAUAGUCUUGCGCUCAACCAGGAAGUCUGUAAUCAUUUUAAGGGUA [U43C A52G A116G]: the self-cleavage was found to be 0.82. The same measure for GUUAACGGUCAUAGGCCAUGGAAACUAGGAGCACCAUUUCGCCGCCAGUGAAGAAAUGGACAAAGAGAAUCUGGGCCAGGCAGGCAUCAAAAGAAAUAGUCUCGCGCUCAACCAGAAAGUCUGUAAUCAUUUUAAGGGUA [U43C A59G A67G U103C]: 0.49. For GUUAACGGUCAUAGGCCAUGGAAACUAGGAGCACCAUUUCGCCGCCAGUGUAGAAAUGAACAAAGAAGAUCUGGGCCAGGCAGGCAUCAAAGGAAAUAGUCUUGCGCUCAACCAGUAAGUCUGUAAUCAUUCUAAGGGUA [U43C A51U A68G A92G A116U U132C], the self-cleavage was 0.09. For GUUAACGGUCAUAGGCCAUGGAAACUAGGAGCACCAUUUCGCCGCCAGUGAGGAAAUGUACAAAGAAGAUCUGGGCCAGGCAGGCAUCAAAAGAAAUAGUCUUGCGCUCAACCAGAAAGUCUGUAAUCAUUUUAAGGGUA [U43C A52G A59U A68G], the self-cleavage stood at 0.9. With GUUAACGGUCAUAGGCCAUGGAAACUAGGAGCACCAUUUCGCCGCCAGUGAAGAAAUGGACAAAGAAAAUCUGGGCCGGGCAGGCAUCAAAAGAAAUAGUCUUGCGCCCAACCAGAAAGUCUGUAAUCAUUUUAAGGGUA [U43C A59G A78G U108C], the self-cleavage worked out at 0.01. As to GUUAACGGUCAUAGGCCAUGGAAACUAGGAGCACCAUUUCGCCGCCAGUGAAGAGAUGAACAAAGAAAAUCUGGGCCAGGCAGGCAUCAAUAGAGAUAGUCUUGCGCUCAACCAGAAAGUCUGUAGUCAUUUUAAGGGUA [U43C A55G A91U A95G A126G], the self-cleavage was determined as 1.59.

Consider GUUAACGGUCAUAGGCCAUGGAAACUAGGAGCACCAUUUCGCCGCCAGUGAAGAAAUGGACAAAGAAAAUCUGGGCCAGGCAGGCAUCAAAAGAAAUAGUCUUGCGCUUAACCAGAAGGUCUGUAAUCACCUUAAGGGUA [U43C A59G C109U A118G U130C U131C], for which the self-cleavage came out at 0.17. Consider GUUAACGGUCAUAGGCCAUGGAAACUAGGAGCACCAUUUCGCCGCCAGUGAAGAAAUGGACAAAGAAAAUCUGGGCCAGGCAGGCAUCAAAAGAAAUAGCCCUGCGCUCAACCAGAAAGUCUGUAAUCAUUUUAAGGGUA [U43C A59G U100C U102C], for which the self-cleavage amounted to 2.15.
